Assay results from patent US20260201030A1, “ANTIBODY, ANTIBODY-DRUG CONJUGATE THEREOF AND USE THEREOF” (EVOPOINT BIOSCIENCES CO., LTD., priority 2021, published 2026).

B1: conjugated 25C7A5-HZ1 (conjugate)
heavy: QVQLVQSGAEVKKPGSSVKVSCKASGYTFTNYWLHWVRQAPGQGLEWMGMMHPISGSSNYAQKFQGRATLTVDKSTSTAYMELSSLRSEDTAVYYCARGLLSAMDYWGQGTLVTVSS[human IgG1 constant region omitted here]
light: EIVLTQSPATLSLSPGERATLSCKASENVKTYVSWYQQKPGQSPRLLIYEASNRYTGVPARFSGSGSATDFTLTISSLEPEDFAVYFCGQTYSFPPTFGQGTKVEIKRTVAAPSVFIFPPSDEQLKSGTASVVCLLNNFYPREAKVQWKVDNALQSGNSQESVTEQDSKDSTYSLSSTLTLSKADYEKHKVYACEVTHQGLSSPVTKSFNRGEC
B2: conjugated 25C7A5-HZ2 (conjugate)
heavy: B1 heavy with Q6E
light: B1 light
B3: 25C7A5-hz1-B81: ADC of 25C7A5-HZ1 with toxin linker, DAR 7.97 (conjugate)
heavy: B1 heavy
light: B1 light

Tests used:
[1] = tested on: HEK293T-claudin 18.2 (human) cells; test: In-vitro killing activity of ADCs on HEK293T-claudin 18.2 (human) cells; assay type: cell-based; conditions: 72 h, CCK8
[2] = tested on: HEK293T-claudin 18.1 (human) cells; test: In-vitro killing activity of ADCs on HEK293T-claudin 18.1 (human) cells; assay type: cell-based; conditions: 72 h, CCK8
NUGC4-Claudin18.2 cells = test: In-vitro killing activity of ADCs on NUGC4-Claudin18.2 cells; assay type: cell-based, human; conditions: 72 h, CCK8
[3] = tested on: human gastric cancer cells NUGC-4; test: In-vivo efficacy of ADCs in NUGC-4 CDX model; set-up: species or system Balb/c Nude mice; conditions: 10 mg/kg i.v. QW*3 wks

Row | Molecule | killing of HEK293T-claudin18.2 cells [1] | killing of HEK293T-claudin18.1 cells [2] | killing of NUGC-4-Claudin18.2 cells (NUGC4-Claudin18.2 cells) | tumor inhibitory efficacy in the NUGC-4 CDX model ([3]; FIG. 10) | tolerability, effect on the body weight of mice ([3]; FIG. 11)
1 | B1 | effective in killing | substantially did not kill | effective in killing |  | 
2 | B2 | effective in killing | substantially did not kill | effective in killing |  | 
3 | B3 |  |  |  | significant efficacy | well tolerated by the mice overall, with no adverse reactions

Residue numbers refer to the chain shown, from its start.
